About 120 (0.75%) of roughly 16,000 compounds were called active. Roughly 4% stayed inconclusive and do not appear here. Calls follow the shape of the dose curve; as a rule, active = well fitted inhibition curve with a large enough effect; inconclusive = small, poorly fitted or top-dose-only effect; inactive = no such curve, though single readings can be large or run the other way. This is one part of the list. Where a structure was tested more than once in an assay, its records may differ in their call.
biological target: Rap guanine nucleotide exchange factor 3 (Homo sapiens) (UniProt O95398); assay: Validation qHTS for antagonist of cAMP-regulated guanine nucleotide exchange factor 3 (EPAC1); conditions: EPAC1 Rap1B-BODIPY-GDP exchange, fluorescence; series mostly up to 150 µM; activity change, negative = inhibition: at the top concentration;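 also: plate controls were DMSO for no effect and ATA control for full effect; nearly all actives have a fitted effect of over 75% in size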
In short: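 Nucleotide exchange followed as fluorescence loss when BODIPY-GDP leaves Rap1B (480 nm excitation, 540 nm emission), read at 5 min intervals over 30 min. Reaction: 100 nM EPAC1, 250 nM RAP1B-BODIPY-GDP, 50 uM GDP; ATA and DMSO define normalization.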

UniProt O95398, sequence (O95398 whole entry, looked up): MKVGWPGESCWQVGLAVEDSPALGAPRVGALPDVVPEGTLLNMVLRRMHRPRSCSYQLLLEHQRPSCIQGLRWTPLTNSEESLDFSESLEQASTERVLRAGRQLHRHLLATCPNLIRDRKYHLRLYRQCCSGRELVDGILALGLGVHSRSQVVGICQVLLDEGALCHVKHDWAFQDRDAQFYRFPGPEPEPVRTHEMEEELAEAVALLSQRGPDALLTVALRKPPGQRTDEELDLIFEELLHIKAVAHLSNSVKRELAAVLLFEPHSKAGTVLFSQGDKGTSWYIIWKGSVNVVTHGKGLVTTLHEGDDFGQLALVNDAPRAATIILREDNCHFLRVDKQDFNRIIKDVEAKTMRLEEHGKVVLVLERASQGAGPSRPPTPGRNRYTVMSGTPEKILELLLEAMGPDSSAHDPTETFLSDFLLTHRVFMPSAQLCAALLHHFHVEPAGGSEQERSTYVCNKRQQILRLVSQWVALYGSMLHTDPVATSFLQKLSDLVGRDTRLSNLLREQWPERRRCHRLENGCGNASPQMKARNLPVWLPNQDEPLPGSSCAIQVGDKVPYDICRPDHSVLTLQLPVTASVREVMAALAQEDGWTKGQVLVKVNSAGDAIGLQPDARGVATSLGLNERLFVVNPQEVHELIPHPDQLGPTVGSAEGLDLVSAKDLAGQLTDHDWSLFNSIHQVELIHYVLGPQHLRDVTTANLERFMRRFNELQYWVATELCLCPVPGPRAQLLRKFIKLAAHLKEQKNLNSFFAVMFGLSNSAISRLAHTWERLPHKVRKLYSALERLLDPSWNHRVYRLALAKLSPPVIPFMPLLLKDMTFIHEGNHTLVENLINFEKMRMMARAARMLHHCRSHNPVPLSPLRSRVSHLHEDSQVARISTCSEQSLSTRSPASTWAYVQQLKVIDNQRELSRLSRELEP

Activity change, negative = inhibition, inactive:
CC(=O)OCC(=O)[C@@]1(O)CCC2C3CC(C)C4=CC(=O)C=CC4(C)C3C(O)CC21C (some centres undefined) 13.7%
CCCCCC[C@@H](CCC)C(=O)O 32.9%
C=CC(=O)c1ccc2ccccc2c1 10.7%
COc1cccc2c1CCC1=CC(=O)CC[C@@]12C 11%
C=CCOc1ccc(CC(=O)O)cc1Cl 15.3%
Cc1c(C(=O)NCCc2cccnc2)cnn1-c1ncc2c(n1)-c1ccccc1CC2 22.9%
O=C(NCc1nnc2n1CCN(C(=O)/C=C/c1ccccc1)CC2)c1cccc(F)c1 0.541%
N#CC(=C(/N)Sc1ccccc1N)/C(C#N)=C(/N)Sc1ccccc1N -4.91%
COc1cc([C@@H]2c3cc4c(cc3[C@H](O)C3COC(=O)[C@@H]32)OCO4)cc(OC)c1OC (some centres undefined) -3.17% [at 75.8 µM]
CC(C)(C)c1ccc(CN2CCN(C(c3ccccc3)c3ccc(Cl)cc3)CC2)cc1 (centres undefined) -17.7%
COC(=O)[C@@H]1CCCN1Cc1ccc2c(c1)CN(Cc1cccc(Cl)c1)CCO2 9.31%
CCCN1CCC(=O)N([C@H](COc2ccccc2)Cc2ccccc2)CC1 3.68%
O=C(c1ccncc1)N1CCC[C@@]2(CCN(c3cccc(-c4ccccc4)c3)C2)C1 -6.61%
NS(=O)(=O)c1cccc2c1c([N+](=O)[O-])cc1nc(O)c(O)nc12
N#Cc1cccc(-c2nccc(NCc3cccnc3)n2)c1 0.0426%
OCCCNc1ccccc1 17.6%
CC(=O)c1ccc2c(c1)N(CCCN1CCC(CCO)CC1)c1ccccc1S2 14.6% [at 75.8 µM]
COc1cccc(CN(CC(=O)NCc2ccccc2)S(=O)(=O)CCl)c1 -9.68%
O=C(NCC1(N2CCOCC2)CCCCC1)c1cnn(-c2nccc(-c3cccs3)n2)c1C1CC1 -5.76%
Cc1[nH]c2c(F)cccc2c1CC(=O)NCCN1Cc2ccccc2OC(C)C1 (centres undefined) -11.3%
CO[C@@]1(NC(=O)Cc2cccs2)C(=O)N2C(C(=O)O)=C(COC(N)=O)CS[C@@H]21
O=c1c(-c2ccc(F)cc2)nc2cnc(Oc3ccccc3)nc2n1C[C@H]1CCCO1 -3.24%
CN(C)Cc1ccccc1-c1cc(N(C)Cc2ccco2)ncn1 0.453%
COc1cccc(-c2ccnc(-n3ncc(C(=O)NCC(C)(C)CN(C)C)c3C)n2)c1 14.8%
c1ccc(-c2ccc(N3CC4(CCNCC4)C3)cc2)cc1 1.07%
CC1CC[C@]2(CO)CC[C@]3(C)C(=CCC4[C@@]5(C)CCC(O)C(C)(C)C5CC[C@@]43C)C2C1C (some centres undefined) -8.05%
CCCCCCCCCCCCC/C=C/[C@@H](O)[C@H](CO)NC(=O)CCCCCCCCCCCCCCC 29% [at 15.3 µM]
CCC1CN(CC(=O)NCc2n[nH]c3c2CCCCC3)Cc2cc(OC)ccc2O1 (centres undefined) -20.6%
O=C(CCCN1CCC(O)(c2ccc(Br)cc2)CC1)c1ccc(F)cc1 -6.82% [at 75.8 µM]
CNCC[C@H](Oc1cccc2ccccc12)c1cccs1 15%
CC(=O)ON(C(C)=O)S(=O)(=O)c1ccc(Cl)cc1 14%
COc1cccc(Nc2ncc3nc(CCc4ccccc4)c(=O)n(Cc4cccs4)c3n2)c1 7.3%
COc1cccc(OC)c1CN1CCC2(CCC(CNC(=O)c3ccccc3)O2)CC1 (centres undefined) 15.7%
COC(C)=O 49.2%
Nc1ncnc2nc(Cl)[nH]c12 7.08%
N#C/C(=C1\SCC(c2ccccc2Cl)S1)n1ccnc1 (centres undefined) 16.1%
C[N+]1(C)CCCC(OC(=O)C(O)(c2ccccc2)c2ccccc2)C1 (centres undefined)
Cc1cnc(-n2ncc(C(=O)N(C)CC3COCCO3)c2C2CC2)nc1-c1cccs1 (centres undefined) 20.8%
CN1CCN2c3ccccc3Cc3ccccc3[C@@H]2C1 -1.25%
CN1CCN(c2ncc3nc(-c4cccs4)c(=O)n(Cc4ccc(F)cc4)c3n2)CC1 16.9%
CN(C)c1ncc2nc(CCc3ccccc3)c(=O)n(Cc3cccs3)c2n1 7.49%
CN(C)C(=O)c1ccc(-c2nc(Nc3ccncc3)c3ccccc3n2)cc1 4.53%
Cc1nc(NCc2c(F)cccc2F)sc1-c1ccn(CCN2CCOCC2)n1 15.6%
CC(C)C(NS(C)(=O)=O)c1nnc2n1CCN(Cc1ccc(Cl)cc1)CC2 (centres undefined) 11.2%
CC(=O)N1CCC2(CC1)CCN(c1cccc(-c3ccccc3)c1)CC2 -9.51%
COc1cc(Cc2cnc(N)nc2N)cc(OC)c1OC
NC(=O)C(=O)O -6.39% [at 75.8 µM]
O=c1c(-c2ccc(F)cc2)nc2cnc(Oc3cccc(Cl)c3)nc2n1C[C@H]1CCCO1 -9.52%
CN(CCc1ccc(Cl)c(Cl)c1)CCN1CCCC1 16.7%
CC1=CC(=O)CC(C)(C)C1(O)/C=C/C(C)=C/C(=O)O (centres undefined) 1.54%
O=S(=O)(c1ccccc1)N1CCC2(CC1)CN(c1ccncc1)C2 10.6%
CN1CCN(c2ncncc2-c2ccccc2C(F)(F)F)CC1 10.5%
COCC1=C(C(=O)OC(C)OC(=O)OC(C)C)N2C(=O)[C@@H](NC(=O)/C(=N\OC)c3csc(N)n3)[C@H]2SC1 (some centres undefined)
COc1cc(=O)n2c(c1C(=O)NCc1ccc3c(c1)OCO3)CCN(C(=O)c1ccc(C)cc1)CC2 15.7%
O=C(CCc1nc2ccccc2s1)N1CCOc2ccc(CN3CCc4sccc4C3)cc2C1 16%
CO[C@H]1[C@H](NC(=O)c2ccco2)c2ccccc2C12CCN(Cc1cc(Cl)ccc1O)CC2 9.06%
COc1ccc(-c2nc3cnc(Nc4cccc(OC)c4)nc3n(CCC#N)c2=O)cc1 27.9%
O=S1(=O)CCO[C@H]2Cc3ccccc3[C@H]2N1Cc1ccccc1 -16%
OC[C@H]1O[C@@H](n2cnc3c(=S)nc[nH]c32)[C@H](O)[C@@H]1O 19.2%
CCN(CC)CCOC(=O)C(c1ccccc1)C1CCCCC1 (centres undefined) 8.31%
COc1cc(-c2ccc(N=Nc3ccc4c(S(=O)(=O)O)cc(S(=O)(=O)O)c(N)c4c3O)c(OC)c2)ccc1N=Nc1ccc2c(S(=O)(=O)O)cc(S(=O)(=O)O)c(N)c2c1O 12.3% [at 27.4 µM]
CN(C)c1cc2c(Nc3ccc4c(cnn4Cc4ccccc4)c3)ncnc2cn1 -2.54% [at 75.8 µM]
COc1ccccc1-c1ccnc(-n2ncc(C(=O)NCc3cccnc3)c2C)n1 8.04%
CN(C)C(=O)c1ccc(-c2cncnc2-n2ccnc2)cc1 20.5%
COCCN1CCN(C(=O)c2cnn(-c3nccc(-c4ccco4)n3)c2C2CC2)CC1 12.5%
Cc1nc2cnc(Oc3ccccc3)nc2n(CCC#N)c1=O 5.7%
OC(Br)C(O)C(O)N1CCCc2ccccc21 (centres undefined) 6.54%
C=CCc1ccc(OC(=O)c2ccccc2)c(OC)c1 -2.05%
COc1cc(OC)c(OC)cc1CN1CCCC(c2nc(C)ncc2-c2ccc(F)cc2)C1 (centres undefined) 5.09%
O=C(NCCc1nnc2n1CCN(Cc1cc3ccccc3o1)CC2)c1ccoc1 10.4%
O=C(C[n+]1csc2ccccc21)c1cccc([N+](=O)[O-])c1 1.68%
O=C(c1ccncc1)N1CCC[C@@]2(CCN(c3ccccn3)C2)C1 9.83%
COc1ccc(S(=O)(=O)Nc2nnc(CC(C)C)s2)cc1
CC1(C)S[C@H]2[C@@H](NC(=O)C(N)c3ccccc3)C(=O)N2[C@H]1C(=O)O (some centres undefined) 11.9%
O=S(=O)(c1ccccc1)N1CCC[C@@]2(CCN(Cc3ccccc3)C2)C1 -11.5%
CN1CCN(c2ncncc2-c2ccc(C(=O)N(C)C)cc2)CC1 12.1%
CC12CC[C@@](C(=O)O)(C(=O)C1=O)C2(C)C 3.58%
CC(=O)c1ccc(-c2ccc3c4c(ccc3c2)OC(CNC(=O)[C@@H]2CCCN2C(C)=O)C4)s1 (some centres undefined) 1.07%
Cc1ccc(O)c2ncccc12 -2.33%
Cc1cnc(-n2ncc(C(=O)N3CCN(C(C)C)CC3)c2-c2ccco2)nc1-c1ccc(F)cc1 14.7%
C[Se]CCC(N)C(=O)O (centres undefined) 32.4%
CC(C)CSc1nnc(CNC(=O)c2ccccn2)n1C 16.1%
O=c1c(CCc2ccccc2)nc2cnc(N3CCOCC3)nc2n1-c1ccccc1 17.3%
Cc1ccc2[nH]cc(C(O)c3c[nH]c4ccc(C)cc34)c2c1 -2.46%
Cc1noc(C)c1-c1ccc2ncnc(N(C)C)c2c1 1.44%
O=C(c1cc(C(F)(F)F)cc(C(F)(F)F)c1)N1CCC2(CC1)CN(c1ncccn1)C2 8.71%
COc1ccc2c(c1)-c1nc(-n3ncc(C(=O)N(C)C(C)c4ccon4)c3C3CC3)ncc1CC2 (centres undefined) -1.85%
CN(C)CCC=C1c2ccccc2CCc2ccccc21
Cc1ccnc2c1NC(=O)c1cccnc1N2C1CC1 14.8%
Cn1cccc1C(=O)N1CCC2(CCCN(C(=O)Nc3cccc(C#N)c3)C2)CC1 20.6%
Cc1cnc(-n2ncc(C(=O)NCCc3ccncc3)c2-c2cccs2)nc1-c1ccc(F)cc1 -3.02%
C/C=C(\C)C(=O)O[C@H]1CC(C)=C2C(=O)C=C(C)C2[C@@H]2OC(=O)[C@@](C)(OC(=O)C=C(C)C)C21 (some centres undefined) -12.6%
CC(C)[C@H](CO)Nc1nc(Nc2cccc(Cl)c2)c2ncn(C(C)C)c2n1 -13.6%
O=c1c2ccccc2oc2ccc(-c3ccoc3)cc12 -12.9%
CCCNC(=O)[C@H]1O[C@@H]1C(=O)N[C@H](C(=O)N1CCC[C@H]1C(=O)OC)[C@@H](C)CC 22.3% [at 201 µM]
COc1ccc(CCNC[C@H](O)c2ccc(O)cc2)cc1OC 19.1%
Cc1[nH]c(=O)c(C#N)cc1-c1ccncc1
O=c1c(-c2cc(F)cc(F)c2)nc2cncnc2n1C1CC1 14.2%
Cn1c(=O)c2[nH]cnc2n(C)c1=O
CC(C)[C@@H](CSc1ccccc1)N1CCN(Cc2ccccc2)CCC1=O 8.17%
O=C(OCC1(COC(=O)c2cccnc2)CCCC(COC(=O)c2cccnc2)(COC(=O)c2cccnc2)C1O)c1cccnc1 33.4%
Oc1ccc(Cl)c2c1CCC2 4.68%
CC1=C(C(N)=O)N2C(=O)[C@@H](NC(=O)Cc3ccccc3)C2SC1 (some centres undefined) -3.04%
COC1C[C@@H](O[C@@H]2C(C)C(=O)OC(C)C(C)[C@H](OC(C)=O)C(C)C(=O)[C@@]3(CO3)CC(C)C(OC3OC(C)CC(N(C)C)[C@H]3OC(C)=O)C2C)OC(C)[C@@H]1OC(C)=O (some centres undefined) 25.2%
